The source of these data is article PMC4336329 (PLoS ONE, 2015).

Screen size: about 310,000 compounds; about 2,200 (0.71%) showed an effect of 50% or more. Effects have a minus sign here. The list shows a part of the results.

human ether-à-go-go-related gene (hERG) potassium channel, sequence (Q12809 whole entry, looked up): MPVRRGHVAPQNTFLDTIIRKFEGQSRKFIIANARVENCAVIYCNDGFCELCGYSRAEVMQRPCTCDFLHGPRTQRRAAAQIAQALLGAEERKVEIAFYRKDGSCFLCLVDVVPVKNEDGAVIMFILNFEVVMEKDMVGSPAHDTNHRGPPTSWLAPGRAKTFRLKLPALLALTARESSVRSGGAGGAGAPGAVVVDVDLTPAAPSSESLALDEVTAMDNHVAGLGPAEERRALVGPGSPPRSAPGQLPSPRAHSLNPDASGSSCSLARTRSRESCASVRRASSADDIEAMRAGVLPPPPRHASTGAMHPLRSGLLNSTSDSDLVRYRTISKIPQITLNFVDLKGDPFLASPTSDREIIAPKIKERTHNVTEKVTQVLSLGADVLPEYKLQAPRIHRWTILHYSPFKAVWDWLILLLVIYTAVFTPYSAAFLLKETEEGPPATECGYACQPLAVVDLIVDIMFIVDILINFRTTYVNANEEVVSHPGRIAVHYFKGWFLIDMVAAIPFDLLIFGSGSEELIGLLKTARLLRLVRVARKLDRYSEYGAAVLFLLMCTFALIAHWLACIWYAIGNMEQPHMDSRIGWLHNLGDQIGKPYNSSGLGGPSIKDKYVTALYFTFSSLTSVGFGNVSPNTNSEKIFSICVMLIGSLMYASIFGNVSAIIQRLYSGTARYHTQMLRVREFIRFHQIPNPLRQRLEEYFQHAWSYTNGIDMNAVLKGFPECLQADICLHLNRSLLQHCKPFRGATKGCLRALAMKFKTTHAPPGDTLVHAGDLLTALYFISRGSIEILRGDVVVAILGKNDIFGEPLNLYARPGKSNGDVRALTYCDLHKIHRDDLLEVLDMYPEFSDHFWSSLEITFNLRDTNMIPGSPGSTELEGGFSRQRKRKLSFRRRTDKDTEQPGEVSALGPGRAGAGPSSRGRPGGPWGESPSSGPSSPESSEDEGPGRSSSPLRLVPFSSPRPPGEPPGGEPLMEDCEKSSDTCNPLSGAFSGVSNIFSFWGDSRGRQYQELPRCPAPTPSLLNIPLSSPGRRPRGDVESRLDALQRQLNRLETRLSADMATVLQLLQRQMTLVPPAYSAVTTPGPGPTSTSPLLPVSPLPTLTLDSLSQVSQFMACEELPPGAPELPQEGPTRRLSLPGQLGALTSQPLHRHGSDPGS

The assay addresses human ether-à-go-go-related gene (hERG) potassium channel (human, UniProt Q12809). The assay is described as follows: primary screen, population patch clamp on CHO cells stably expressing hERG.
For `CC1CCCCN1CCNC(=O)c1ccc2c(c1)N(Cc1ccccc1F)C(=O)c1ccccc1S2=O` (stereo not drawn), the “hERG current change (%, negative = inhibition) at 1uM” value is listed as -1.58%. For `CCOC(=O)CSc1nc(-c2cccs2)nc2c1c(=O)n(C)c(=O)n2C`, the “hERG current change (%, negative = inhibition) at 1uM” value was determined as 18.8%. Regarding `O=C(N/N=C/c1cc([N+](=O)[O-])ccc1O)C1CC1`, the “hERG current change (%, negative = inhibition) at 1uM” value is listed as 14.5%. On to `CCCCNS(=O)(=O)c1ccc2nc(SCC(=O)Nc3ccccc3Cl)[nH]c2c1`, for which the “hERG current change (%, negative = inhibition) at 1uM” value is given as 16.3%.

For `O=C(Oc1cccc(C(=S)N2CCOCC2)c1)c1ccc([N+](=O)[O-])cc1`, the “hERG current change (%, negative = inhibition) at 1uM” value is 7.29%.

With `Cc1ccc(-c2nc3nc4ccccc4nc3n2Cc2ccco2)cc1`, the “hERG current change (%, negative = inhibition) at 1uM” value is -3.4%. As to `Cc1cc2cc(CNC(=O)c3ccc(Br)o3)ccc2n1C`, the “hERG current change (%, negative = inhibition) at 1uM” value is 14.9%. Take `CON(C)c1nc(OCCNC(=O)OCc2ccc(Cl)cc2Cl)nc(N(C)C)n1`: the “hERG current change (%, negative = inhibition) at 1uM” value came out at 8.58%. Under `CCOc1cc(N2CCOCC2)c(OCC)cc1NC(=O)COC(=O)c1ccc(Cl)cc1N` stands 1.5%; under `CC(C)NC(=O)COc1ccc(/C=N/NS(=O)(=O)c2ccccc2)cc1`, 17.5%; under `CCOc1cc2c(cc1OCC)C(c1ccccc1OC)OC(=O)C2` (stereo not drawn), 14.6%. As to `O=C(Nc1cccc(S(=O)(=O)N2CCCCC2)c1)c1ccc(N2CCCC2=O)cc1`, the “hERG current change (%, negative = inhibition) at 1uM” value is on record as 13.5%. Regarding `CCCC[C@@H]1CNC(=S)N1CCCc1cc(OC)c(OC)c(OC)c1`, the “hERG current change (%, negative = inhibition) at 1uM” value was determined as 18.2%.

Regarding `CCCc1oc2c(c(=O)c1CC)C(=O)CC(C)(C)C2`, the “hERG current change (%, negative = inhibition) at 1uM” value is on record as 14.4%.

As for `COc1ccc(CNC(=O)c2ccc(NC(=O)CC3SC(N4CCCC4)=NC3=O)cc2)cc1` (stereo not drawn), the “hERG current change (%, negative = inhibition) at 1uM” value is 9.76%. Next, `Cc1csc(NC(=O)NC2(C(F)(F)F)Oc3ccccc3O2)n1`: 7.89%. For `CC(C)(C)c1cc(C(=O)N/N=C/c2ccc(O)cc2)n(-c2ccccc2)n1`, the “hERG current change (%, negative = inhibition) at 1uM” value worked out at 0.356%. Under `O=C(NN1C(=O)c2ccc(-c3ccc4c(c3)C(=O)N(NC(=O)c3cccnc3)C4=O)cc2C1=O)c1cccnc1` stands 6.87%; under `COc1cc2nc(SCC(=O)c3ccc(Br)cc3)n3nc(C)nc3c2cc1OC`, 14.9%; under `Cc1ccc(NC2SC(=O)N(Cc3cccc(C(=O)O)c3)C2=O)cc1` (stereo not drawn), 16%. `COc1cc(/C=C(\C#N)C(=O)Nc2cccnc2)ccc1OC(C)C`: the “hERG current change (%, negative = inhibition) at 1uM” value came out at 11.3%. For `Cc1cc(=O)oc2cc(NC(=O)c3c(Cl)cnn3C)ccc12`, the “hERG current change (%, negative = inhibition) at 1uM” value was 10.7%. Under `N/C(=N\OC(=O)C12CC3CC(CC(C3)C1)C2)c1ccncc1` stands 11.4%; under `O=C(NCC(=O)N1CCN(c2ccccc2)CC1)c1ccccc1`, 9.42%. Under `O=C(COC(=O)c1ccc([N+](=O)[O-])o1)NC1CCS(=O)(=O)C1` (stereo not drawn) stands 15.2%; under `COCCNC(=O)CN1CCC(n2c(C)nc3cc(C(F)(F)F)ccc32)CC1`, 5.62%. As to `CCOC(=O)CC1C(=O)NC2CCCCC2N1C(=O)Nc1ccc(Cl)cc1` (stereo not drawn), the “hERG current change (%, negative = inhibition) at 1uM” value was -10.6%. Next, `COC(=O)C1CN(C(=O)COc2cccc(C)c2C)c2ccccc2O1` (stereo not drawn): 17.9%; `CC12CCC(C(=O)N(c3ccc(Cl)cc3)C1=O)C2(C)C` (stereo not drawn): 9.95%. Under `Oc1cccc2c3c(oc12)CCCC3` stands 15.6%. Next, `COc1ccccc1N(Cc1ccccc1)S(=O)(=O)c1cccc(C(=O)O)c1`: 10.4%. Take `O=C(NCCC1=CCCCC1)c1ccc(Cl)c([N+](=O)[O-])c1`: the “hERG current change (%, negative = inhibition) at 1uM” value was found to be 1.16%.

With `CC(C)CN(C(=O)COC(=O)c1nc(Cl)ccc1Cl)c1c(N)n(Cc2ccccc2)c(=O)[nH]c1=O`, the “hERG current change (%, negative = inhibition) at 1uM” value was determined as 18.5%.

For `CC1=CC(c2ccccc2)=Nc2ccc(C)cc2N1`, the “hERG current change (%, negative = inhibition) at 1uM” value came to 9.69%. On to `COc1cccc(C(=O)C2CCCN(Cc3ccc4nonc4c3)C2)c1` (stereo not drawn), for which the “hERG current change (%, negative = inhibition) at 1uM” value was -14.6%. Next, `COc1cc(C#Cc2ccc3cc(C(C)(C)O)oc(=O)c3c2)cc(OC)c1`: 19.3%; `CCOc1ccc(NC2=C(Cl)C(=O)N(Cc3ccccc3)C2=O)cc1`: -1.77%; `O=C(NC(CSCc1ccccc1)C(=O)N/N=C/c1ccc(O)cc1O)c1ccc([N+](=O)[O-])cc1` (stereo not drawn): -7%. As to `Cc1c(OC(C)C(=O)NCC2CCC(C(=O)O)CC2)ccc2c1oc(=O)c1ccccc12` (stereo not drawn), the “hERG current change (%, negative = inhibition) at 1uM” value is 14.5%. On to `CCOc1cc(C(=S)N2CCOCC2)ccc1OC(=O)c1cccc(C)c1`, for which the “hERG current change (%, negative = inhibition) at 1uM” value amounted to 1.58%. Next, `CCN1C/C(=C/c2ccc(OC)c(O)c2)C(=O)/C(=C/c2ccc(OC)c(O)c2)C1`: 6.85%.

As to `Nc1nc(F)cc(N2CCCCCC2)n1`, the “hERG current change (%, negative = inhibition) at 1uM” value stood at 12.8%.

For the compound `COc1ccc(C(=O)Nc2oc(-c3ccccc3)c(-c3ccccc3)c2C#N)cc1`, the “hERG current change (%, negative = inhibition) at 1uM” value is on record as 9.36%. Consider `O=c1[nH]c(Nc2ccc(F)cc2)cc2ccccc12`, for which the “hERG current change (%, negative = inhibition) at 1uM” value is reported as 6.15%. Consider `CCn1nc(C)cc1C(=O)N1CCCC(C(=O)c2cccc(OC)c2)C1` (stereo not drawn), for which the “hERG current change (%, negative = inhibition) at 1uM” value is 11.6%.

As for `COc1cc(S(=O)(=O)Nc2ccccc2C)ccc1Cl`, the “hERG current change (%, negative = inhibition) at 1uM” value turned out to be 6.03%. Take `Cc1ccc(-c2cc(C(=O)Nc3ccc(S(=O)(=O)Nc4cc(C)on4)cc3)c3ccccc3n2)c(C)c1`: the “hERG current change (%, negative = inhibition) at 1uM” value was -3.02%.

Turning to `Cc1ccc(S(=O)(=O)N2C(=O)C(c3ccccc3)SC2=Nc2ccccc2)cc1` (stereo not drawn), the “hERG current change (%, negative = inhibition) at 1uM” value is recorded as 12.3%. Under `CCCNC(=O)COC(=O)c1cc(SC)ccc1Cl` stands 0.961%. `Cc1cccc(-n2c(SCC(=O)Nc3nonc3C)nnc2-c2ccoc2C)c1`: the “hERG current change (%, negative = inhibition) at 1uM” value is given as -81.9%. Under `CC1(C)CC(=O)C2=C(C1)N(c1ccccc1)C(=O)C2(O)C(F)(F)F` (stereo not drawn) stands 1.06%; under `Cc1cccc(C)c1NS(=O)(=O)c1c(C)[nH]c(=O)[nH]c1=O`, -0.229%; under `CCOC(=O)Cc1csc(NC(=O)CSc2nnc(-c3cccnc3)n2Cc2ccco2)n1`, 0.296%.

As for `CCCCCc1c(O)nc(SCCN(C)C)[nH]c1=O.Cl`, the “hERG current change (%, negative = inhibition) at 1uM” value is 8.28%.
